From the supplement of paper PMC6828730
Counter-ions that a name gives are not always drawn. Some of the results follow. Many values rest on one well or one pass, so single values are uncertain.

Test system: hiPSC-derived cardiomyocytes
Assay: time to death of most cells in well after compound addition (days); higher = less cardiotoxic; extreme values may be limits of the assay
Details: screen: 3; 10 µM

Structure (SMILES) | time to death of most cells in well
Cc1ncc(-c2ccnc(Nc3ccc(S(C)(=O)=O)cc3)n2)n1C(C)C | 6
N=C(N)NC(=N)NCCc1ccccc1 [Phenformin HCl] | > 7
Cc1cnc(Nc2ccc(OCCN3CCCC3)cc2)nc1Nc1cccc(S(=O)(=O)NC(C)(C)C)c1 | 2.5
CO[C@H]1CC[C@H](N2C(=O)CNc3ncc(-c4ccc(C(C)(C)O)nc4)nc32)CC1 | > 7
CCN(CC)CCCC(C)Nc1nc(C)cc(Nc2ccc3nc(C)cc(N)c3c2)n1 (stereo not drawn) | > 7
O=C1NCCc2[nH]c(-c3ccncc3)cc21 | 2.5
COc1cc2ncnc(Nc3ccc(F)c(Cl)c3)c2cc1OCCCN1CCOCC1 [Gefitinib (ZD1839)] | > 7
Cc1ccccc1-n1c(Cn2nc(-c3cccc(O)c3)c3c(N)ncnc32)nc2cccc(C)c2c1=O | > 7
CCOC(=O)c1cnc2ccc(-c3cncc(NS(=O)(=O)c4ccccc4)c3)cn12 | > 7
COc1ccc(S(=O)(=O)N(C(C)=O)c2ccccc2/C=C/c2cc[n+]([O-])cc2)cc1 | > 7
O=C1Nc2ccc(I)cc2C1=Cc1cc(Br)c(O)c(Br)c1 | > 7
CN(C(Cc1ccc(OS(=O)(=O)c2cccc3cnccc23)cc1)C(=O)N1CCN(c2ccccc2)CC1)S(=O)(=O)c1cccc2cnccc12 (stereo not drawn) | > 7
CN1CCCN(C(=O)c2cccc(-c3ccc(/C=C4/C(=O)Nc5ccc(Cl)cc54)o3)c2)CC1 | 0
O=c1sn(-c2cccc3ccccc23)c(=O)n1Cc1ccccc1 [Tideglusib] | > 7
CCNC(=O)Nc1ccc(-c2nc3c(c(N4CCOC[C@@H]4C)n2)CCN(C2COC2)C3)cc1 | > 7
COc1cc2c(c(OC)c1OC)-c1c(cc3c(c1OC)OCO3)CC(C)C(C)C2 (stereo not drawn) [Schisandrin B (Sch B)] | > 7
CN1CCN(c2ccc(C(=O)Nc3n[nH]c4ccc(Cc5cc(F)cc(F)c5)cc34)c(NC3CCOCC3)c2)CC1 [Entrectinib (RXDX-101)] | 3.5
Cc1[nH]c2ccccc2c1C1=C(NCCc2ccc(F)cc2)C(=O)N(C)C1=O | > 7
COc1nccc(-c2c(-c3ccc(F)cc3)ncn2C2CCC(O)CC2)n1 (stereo not drawn) | > 7

Structure (SMILES) | time to death of most cells in well
Cc1cc(NC(=O)c2cccc(NC(=O)/C=C/CN(C)C)c2)ccc1Nc1nccc(-c2cccnc2)n1 | 4
CNC(=O)c1cc(Oc2ccc(NC(=O)Nc3ccc(Cl)c(C(F)(F)F)c3)cc2)ccn1 [Sorafenib] | 4.5
CCCNC(=O)c1cn2ncnc(Nc3cc(C(=O)NC4CC4)ccc3C)c2c1C | > 7
O=C(O)c1ccc(Nc2ncc3c(n2)-c2ccc(Cl)cc2C(c2c(F)cccc2F)=NC3)cc1 | > 7
Cc1cc(O)c2c(c1)C(=O)c1cccc(O)c1C2=O [Chrysophanic Acid] | > 7
O=C(NC(NC(=S)Nc1ccc(F)c([N+](=O)[O-])c1)C(Cl)(Cl)Cl)C(c1ccccc1)c1ccccc1 (stereo not drawn) | 3.5
O=c1cc(-c2ccccc2)oc2c(O)c(O)ccc12 [7,8-Dihydroxyflavone] | > 7
C[C@@H](Oc1cc(-c2cnn(C3CCNCC3)c2)cnc1N)c1c(Cl)ccc(F)c1Cl | > 7
Cc1[nH]c(/C=C2\C(=O)Nc3ccc(S(=O)(=O)Cc4c(Cl)cccc4Cl)cc32)c(C)c1C(=O)N1CCC[C@@H]1CN1CCCC1 | 0.5
Cc1nc(NC(=O)N2CCC[C@H]2C(N)=O)sc1-c1csc(C(C)(C)C)n1 | > 7
CNCc1ccc(-c2cc(-c3nc(-c4ccc(S(=O)(=O)C(C)C)cc4)cnc3N)on2)cc1 | 4
CN(C)S(=O)(=O)c1ccc2c(c1)/C(=C/c1cc3c([nH]1)CCCC3)C(=O)N2 | > 7
O=C(c1cccc(Cl)c1F)N1CCN(Cc2cccc(Nc3nccs3)n2)CC1 | > 7
COc1cc2ncnc(Nc3ccc(Cl)cc3F)c2cc1OC | > 7
COc1ccc(COc2cc3oc(=O)c4cc(C(C)O)ccc4c3cc2OC)cc1 (stereo not drawn) [Palomid 529 (P529)] | > 7
O=c1cc(-c2cccc3c2Sc2ccccc2S3)oc(N2CCOCC2)c1 | > 7
O=S(=O)(NCCNCC=Cc1ccc(Br)cc1)c1cccc2cnccc12 | > 7
COc1cc(OC)c(/C=C/S(=O)(=O)Cc2ccc(OC)c(NCC(=O)O)c2)c(OC)c1 | > 7
CNC(=O)c1ccccc1Sc1ccc2c(/C=C/c3ccccn3)n[nH]c2c1 [Axitinib] | > 7
